{
  "source": "the supplement of paper PMC8728848",
  "assay_in_all_cases": "glycan array binding signal (z-score within array); higher = stronger binding",
  "conditions_in_all_cases": "glycan notation: IUPAC condensed, linker removed",
  "key": {"[1]": {"molecular_target": "Fuc(a1-2)Gal", "how_it_was_run": "(§1)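 The Consortium for Functional Glycomics database supplied 3228 glycan arrays, of which those lacking an available protein sequence were dropped. The binding signal, a within-array Z-score, was averaged across arrays of the same protein sequence and across linkers. Negative scores can be read as non-binding.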"}, "[2]": {"molecular_target": "Fuc(a1-2)Gal(b1-3)GalNAc", "how_it_was_run": "as §1"}, "[3]": {"molecular_target": "Fuc(a1-2)Gal(b1-3)GalNAc(a1-3)[Fuc(a1-2)]Gal(b1-4)Glc", "how_it_was_run": "as §1"}, "[4]": {"molecular_target": "Fuc(a1-2)Gal(b1-3)GalNAc(a1-3)[Fuc(a1-2)]Gal(b1-4)GlcNAc", "how_it_was_run": "as §1"}, "[5]": {"molecular_target": "Fuc(a1-2)Gal(b1-3)GalNAc(b1-3)Gal", "how_it_was_run": "as §1"}, "[6]": {"molecular_target": "Fuc(a1-2)Gal(b1-3)GalNAc(b1-3)Gal(a1-4)Gal(b1-4)Glc", "how_it_was_run": "as §1"}, "[7]": {"molecular_target": "Fuc(a1-2)Gal(b1-3)GalNAc(b1-4)[Neu5Ac(a2-3)]Gal(b1-4)Glc", "how_it_was_run": "as §1"}, "[8]": {"molecular_target": "Fuc(a1-2)Gal(b1-3)GlcNAc", "how_it_was_run": "as §1"}, "[9]": {"molecular_target": "Fuc(a1-2)Gal(b1-3)GlcNAc(b1-2)Man(a1-3)[Fuc(a1-2)Gal(b1-3)GlcNAc(b1-2)Man(a1-6)]Man(b1-4)GlcNAc(b1-4)GlcNAc", "how_it_was_run": "as §1"}, "[10]": {"molecular_target": "Fuc(a1-2)Gal(b1-3)GlcNAc(b1-2)Man(a1-3)[Fuc(a1-2)Gal(b1-3)GlcNAc(b1-2)Man(a1-6)]Man(b1-4)GlcNAc(b1-4)[Fuc(a1-6)]GlcNAc", "how_it_was_run": "as §1"}, "[11]": {"molecular_target": "Fuc(a1-2)Gal(b1-3)GlcNAc(b1-3)Gal(b1-4)Glc", "how_it_was_run": "as §1"}, "[12]": {"molecular_target": "Fuc(a1-2)Gal(b1-3)GlcNAc(b1-3)GalNAc", "how_it_was_run": "as §1"}, "[13]": {"molecular_target": "Fuc(a1-2)Gal(b1-3)GlcNAc(b1-3)[Fuc(a1-2)Gal(b1-3)GlcNAc(b1-6)]GalNAc", "how_it_was_run": "as §1"}, "[14]": {"molecular_target": "Fuc(a1-2)Gal(b1-3)GlcNAc(b1-3)[Gal(b1-4)GlcNAc(b1-6)]Gal(b1-4)Glc", "how_it_was_run": "as §1"}, "[15]": {"molecular_target": "Fuc(a1-2)Gal(b1-3)GlcNAc(b1-3)[Neu5Ac(a2-6)Gal(b1-4)GlcNAc(b1-6)]Gal(b1-4)Glc", "how_it_was_run": "as §1"}, "[16]": {"molecular_target": "Fuc(a1-2)Gal(b1-3)GlcNAc6S", "how_it_was_run": "as §1"}, "[17]": {"molecular_target": "Fuc(a1-2)Gal(b1-3)[Fuc(a1-4)]GlcNAc", "how_it_was_run": "as §1"}, "[18]": {"molecular_target": "Fuc(a1-2)Gal(b1-3)[Fuc(a1-4)]GlcNAc(b1-2)Man(a1-3)[Fuc(a1-2)Gal(b1-3)[Fuc(a1-4)]GlcNAc(b1-2)Man(a1-3)]Man(b1-4)GlcNAc(b1-4)GlcNAc", "how_it_was_run": "as §1"}, "[19]": {"molecular_target": "Fuc(a1-2)Gal(b1-3)[Fuc(a1-4)]GlcNAc(b1-2)Man(a1-3)[Fuc(a1-2)Gal(b1-3)[Fuc(a1-4)]GlcNAc(b1-2)Man(a1-6)]Man(b1-4)GlcNAc(b1-4)[Fuc(a1-6)]GlcNAc(b1-4)[Fuc(a1-6)]GlcNAc", "how_it_was_run": "as §1"}, "[20]": {"molecular_target": "Fuc(a1-2)Gal(b1-3)[Fuc(a1-4)]GlcNAc(b1-3)[Fuc(a1-3)[Gal(b1-4)]GlcNAc(b1-6)]Gal(b1-4)Glc", "how_it_was_run": "as §1"}, "[21]": {"molecular_target": "Fuc(a1-2)Gal(b1-3)[Fuc(a1-4)]GlcNAc(b1-3)[Gal(b1-4)GlcNAc(b1-6)]Gal(b1-4)Glc", "how_it_was_run": "as §1"}, "[22]": {"molecular_target": "Fuc(a1-2)Gal(b1-4)Glc", "how_it_was_run": "as §1"}, "[23]": {"molecular_target": "Fuc(a1-2)Gal(b1-4)Glc6S", "how_it_was_run": "as §1"}, "[24]": {"molecular_target": "Fuc(a1-2)Gal(b1-4)GlcNAc", "how_it_was_run": "as §1"}, "[25]": {"molecular_target": "Fuc(a1-2)Gal(b1-4)GlcNAc(b1-2)Man", "how_it_was_run": "as §1"}, "[26]": {"molecular_target": "Fuc(a1-2)Gal(b1-4)GlcNAc(b1-2)Man(a1-3)[Fuc(a1-2)Gal(b1-4)GlcNAc(b1-2)Man(a1-6)]Man(b1-4)GlcNAc(b1-4)GlcNAc", "how_it_was_run": "as §1"}, "[27]": {"molecular_target": "Fuc(a1-2)Gal(b1-4)GlcNAc(b1-2)Man(a1-3)[Fuc(a1-2)Gal(b1-4)GlcNAc(b1-2)Man(a1-6)]Man(b1-4)GlcNAc(b1-4)[Fuc(a1-6)]GlcNAc", "how_it_was_run": "as §1"}, "[28]": {"molecular_target": "Fuc(a1-2)Gal(b1-4)GlcNAc(b1-2)[Fuc(a1-2)Gal(b1-4)GlcNAc(b1-4)]Man(a1-3)[Fuc(a1-2)Gal(b1-4)GlcNAc(b1-2)Man(a1-6)]Man(b1-4)GlcNAc(b1-4)GlcNAc", "how_it_was_run": "as §1"}, "[29]": {"molecular_target": "Fuc(a1-2)Gal(b1-4)GlcNAc(b1-3)Gal(b1-4)GlcNAc", "how_it_was_run": "as §1"}, "[30]": {"molecular_target": "Fuc(a1-2)Gal(b1-4)GlcNAc(b1-3)Gal(b1-4)GlcNAc(b1-2)Man(a1-3)[Fuc(a1-2)Gal(b1-4)GlcNAc(b1-3)Gal(b1-4)GlcNAc(b1-2)Man(a1-6)]Man(b1-4)GlcNAc(b1-4)GlcNAc", "how_it_was_run": "as §1"}},
  "note": "Some of the results follow.",
  "data": [
    {"binder": "B725 (Bifidobacterium sp) (protein) MNNTTRAVIATAAIGALLIPLAGCGNTTTSSGKTELTVWSWDASIDRAAKSFMKANPDITVKVSNVGSTEETYTALNNAAQAGSGLPDVTLIEYLAIPQFVHSDTLMDLSKVYNTAKLKDTFTPGTWNSVNINGGLYAMPADSGPMAYFYDKDVFDKAGISEPPTTWDEFYEDAKKIRATGSYITSDSGDAGLFNAMMWAMGGHAYKLNDDKLTINIAKDKGAQRFMDLWQKMRDEDLIDVHTKTWTDDWMKSLGDGSIASLISGAWMANNLLQGVPQATGKFRVALLPTIDGTPINGEYGGSGLAITKKIPDGKLDAAKKFVEYVTTNDEGIDARVSNGSFPATTKTLNQKDFLAKTTLRNTDGSDNEFFGGQKYNEIFSQAAKDVTGKWEFLPFEPYARSVYNDNMGSFFAGKTSFRTAADNWQKALKDYAKDQGFTVQ", "values": [
      {"measurement": "glycan array binding signal (z-score)", "setting": "[1]", "result": -0.221},
      {"measurement": "glycan array binding signal (z-score)", "setting": "[2]", "result": -0.216},
      {"measurement": "glycan array binding signal (z-score)", "setting": "[3]", "result": -0.208},
      {"measurement": "glycan array binding signal (z-score)", "setting": "[4]", "result": -0.229},
      {"measurement": "glycan array binding signal (z-score)", "setting": "[5]", "result": -0.205},
      {"measurement": "glycan array binding signal (z-score)", "setting": "[6]", "result": -0.214},
      {"measurement": "glycan array binding signal (z-score)", "setting": "[7]", "result": -0.211},
      {"measurement": "glycan array binding signal (z-score)", "setting": "[8]", "result": -0.292},
      {"measurement": "glycan array binding signal (z-score)", "setting": "[9]", "result": -0.208},
      {"measurement": "glycan array binding signal (z-score)", "setting": "[10]", "result": -0.181},
      {"measurement": "glycan array binding signal (z-score)", "setting": "[11]", "result": -0.176},
      {"measurement": "glycan array binding signal (z-score)", "setting": "[12]", "result": -0.203},
      {"measurement": "glycan array binding signal (z-score)", "setting": "[13]", "result": -0.215},
      {"measurement": "glycan array binding signal (z-score)", "setting": "[14]", "result": -0.206},
      {"measurement": "glycan array binding signal (z-score)", "setting": "[15]", "result": -0.219},
      {"measurement": "glycan array binding signal (z-score)", "setting": "[16]", "result": -0.234},
      {"measurement": "glycan array binding signal (z-score)", "setting": "[17]", "result": -0.215},
      {"measurement": "glycan array binding signal (z-score)", "setting": "[18]", "result": -0.202},
      {"measurement": "glycan array binding signal (z-score)", "setting": "[19]", "result": -0.192},
      {"measurement": "glycan array binding signal (z-score)", "setting": "[20]", "result": -0.216},
      {"measurement": "glycan array binding signal (z-score)", "setting": "[21]", "result": -0.2},
      {"measurement": "glycan array binding signal (z-score)", "setting": "[22]", "result": -0.225},
      {"measurement": "glycan array binding signal (z-score)", "setting": "[23]", "result": -0.2},
      {"measurement": "glycan array binding signal (z-score)", "setting": "[24]", "result": -0.225},
      {"measurement": "glycan array binding signal (z-score)", "setting": "[25]", "result": -0.229},
      {"measurement": "glycan array binding signal (z-score)", "setting": "[26]", "result": -0.187},
      {"measurement": "glycan array binding signal (z-score)", "setting": "[27]", "result": -0.198},
      {"measurement": "glycan array binding signal (z-score)", "setting": "[28]", "result": -0.192},
      {"measurement": "glycan array binding signal (z-score)", "setting": "[29]", "result": -0.159},
      {"measurement": "glycan array binding signal (z-score)", "setting": "[30]", "result": -0.162}
    ]}
  ]
}
